Drawing on the supplement of paper PMC10126150, this text covers switch fluorescence ratio for 67 sequences.

Values marked as one replicate rest on one cluster of the flow cell; about a third of the high ones do not repeat.

This series has as its system ATP. In words: switch fluorescence ratio, 500 uM ATP over buffer (Cy3 cluster intensity, sum of 5 cycles each) (fold (ratio)); higher = stronger signal-on switching upon ATP binding; sequences stand for … in TCGTCGGCAGCGTCAGATGTGTATAAGAGACAGTTTTTTTTTTTTTTTTTTTTTTTTT…TC. The following applies: aptamer strand: ATP DNA aptamer (quencher-CACCTGGGGGAGTATTGCGGAGGAAGG + anchor), 100 nM annealed; ATP concentration: 500 uM; one replicate. The procedure, abridged:
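The fluorescence ratio divides summed target-cycle Cy3 intensity by summed buffer-cycle Cy3 intensity for each cluster and is averaged per switch-domain sequence. Cy3-labelled switching-strand clusters on a modified Illumina MiSeq flow-cell were annealed to 100 nM quencher-labelled ATP aptamer, then imaged in selection buffer and again after 15 min with 500 uM ATP at 22 °C. Five such cycles were run, with NaOH stripping and re-annealing between them, and clusters outside 100-1000 RFU were excluded.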
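Note: ATP exposure 15 min at 22 °C before imaging.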

Regarding TTTAGTGAGT, the switch fluorescence ratio came to 0.995. In the case of GCACTGACGG, the switch fluorescence ratio amounted to 1.69. The figure for CGGCTGATGA is 0.957; for TAAAACTCGA it is 1; for AGATAGAAGC it is 1.06. The figure for GTGAGTCCCT is 0.995. The figure for GAAGCGCGGA is 0.985. As for TATGGCCACG, the switch fluorescence ratio was found to be 0.977. With CGAAAAGGTC the figure was 1; with TATTGGGTCT, 1.02; with ACGCACTAGT, 1.5. The figure for ATGAATTGCG is 1.02; for TGCAGGAGTG it is 0.961.

Take TAAATCGAAA: the switch fluorescence ratio is 1. With AGTTCCAG the figure was 1.02; with ACATGATGGG, 1.03.

Turning to GGTAGGATTA, the switch fluorescence ratio amounted to 1.03. For the sequence AGGGTTTTG, the switch fluorescence ratio is 0.983.

In the case of AAGTCGATG, the switch fluorescence ratio worked out at 0.979. With AGTATGGTAC the figure was 1.08. With AGTGATAAAG the figure was 1.05; with AACGGTTTTA, 0.997; with CTTTTTCGAT, 1.01.

Regarding CAGTCGTTCG, the switch fluorescence ratio was 0.97. With AGAAACTGCG the figure was 1.04; with CGGCCTTTAC, 1.87. With GTCGGGGGAA the figure was 1.01; with TCGGGAAAGA, 1.12; with GCGGAGGGCA, 0.966. With AGTAGGATT, the switch fluorescence ratio was 1.01. With AGATAACTT the figure was 1.01. In the case of TTCGAGCGTC, the switch fluorescence ratio was 1.05. The figure for ATCAATCGGG is 1.04. With AAAATTGCTA the figure was 0.988; with TGATCGCGAA, 1.07. The figure for AGCCGTCCCG is 0.964. For the sequence CCCGCGGGCA, the switch fluorescence ratio turned out to be 1.01. The figure for GCTACAAGGG is 1.05; for TTGCAGGGTT it is 1.07; for CTGAGGCGTA it is 1.11. As for TCCAGTGTTT, the switch fluorescence ratio was 1.02. With GGTGTAAATG the figure was 1.02; with AAACAAGTGG, 1.06. The figure for AATTGAGCCC is 0.987. With TTATGGTGGC the figure was 0.966; with GTCATTCGT, 0.975. As for GAGACCTGAT, the switch fluorescence ratio amounted to 1.

On to CTCCGAGGCG, for which the switch fluorescence ratio was determined as 1.87. Consider TCCTATTATT, for which the switch fluorescence ratio worked out at 0.976. With GACAAGTAGT the figure was 1.01. With AAAGTGCTTA the figure was 1.03. With GGCACACCAA the figure was 1.03. With AGCAAAAGCG, the switch fluorescence ratio came to 0.985. With ATTCTCGCTT the figure was 1.01; with GACTACTTGG, 1.05; with CTAAACAGCT, 0.971. The figure for TATAAGGTAC is 1.09; for AGCTAGTAAC it is 1.02; for ATACCAGAGC it is 1.04. The figure for AGAAAAAGAC is 0.978; for CGGTTTCCGA it is 0.984; for GTCTTTGGGA it is 0.97.

For the sequence GCTTTGACCG, the switch fluorescence ratio is 1.02. The figure for CACGTTGCCG is 1.04; for TTCCCTTGCT it is 1.1. As to CTATGTTATA, the switch fluorescence ratio came to 0.987.

On to GCATGAGGTA, for which the switch fluorescence ratio was determined as 0.96.
